From PubChem BioAssay AID1240 (Sanford-Burnham Center for Chemical Genomics, 2008)
Out of some 50,000 compounds screened, about 800 (1.6%) showed an effect of 50% or more. The list shows a part of the results.

molecular target: Bcl-2-like protein 10 (Homo sapiens) (UniProt Q9HD36); assay: Phenotype converters, Bcl-B/TR3 peptide binding displacement, primary biochemical FP (AID 1240); settings: GST-Bcl-B / FITC-TR3 peptide fluorescence polarization; stronger effect = higher value; compound at 3.75 mg/L;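 note: 0% = Bcl-B with tracer peptide and DMSO and 100% = tracer peptide lacking Bcl-B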
Chain of UniProt Q9HD36 (Q9HD36 whole entry, looked up): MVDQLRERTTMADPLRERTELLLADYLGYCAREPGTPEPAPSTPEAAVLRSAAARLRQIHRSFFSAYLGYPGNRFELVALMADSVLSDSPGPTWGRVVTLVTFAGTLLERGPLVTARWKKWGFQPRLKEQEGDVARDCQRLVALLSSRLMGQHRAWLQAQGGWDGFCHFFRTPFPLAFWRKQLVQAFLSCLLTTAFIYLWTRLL

Point of comparison: `Cc1cc(C)nc(/N=C(/N)Nc2cccc(OCc3ccccc3)c2)n1`, displacement -4.3%. Against it:
- N#C/C(=C\c1c(O)n(-c2c(Cl)cccc2Cl)c2ccccc12)C(N)=NCc1ccccc1 — lower, -5%
- O=C(Nc1ccc([N+](=O)[O-])cc1)C1C2C3CCC(C3)C12 (stereo not drawn) — higher, -3.5%
- O=C(NNc1ccccc1)c1ccccc1Cl — higher, -1.2%
- CCc1ccccc1NC(=O)CC1Sc2ccccc2NC1=O (stereo not drawn) — higher, 10.7%
- O=C(NC(NC(=S)Nc1ccccc1I)C(Cl)(Cl)Cl)c1cccc([N+](=O)[O-])c1 (stereo not drawn) — higher, -3.9%
- CCOC(=O)c1ccc(NC(=O)C(=O)NCc2ccc(C)cc2)cc1 — higher, 8.8%
- CC1(C)C(c2ccco2)=[N+]([O-])C2(CCCCCC2=O)N1O (stereo not drawn) — higher, 1.1%
- O=C(NNC(=O)c1ccco1)c1cccc(Cl)c1 — lower, -8.7%
- O=C(Cn1cc(/C=C2/C(=O)NC(=S)N(c3ccccc3F)C2=O)c2ccccc21)Nc1ccccc1 — higher, 30.7%
- CN(C)CCOCCOCCN(C)C — higher, 10.5%
- COC(=O)c1sc(NC(=O)C2CC3CCC2C3)c(C(N)=O)c1C (stereo not drawn) — higher, -4%
- CSCCNS(=O)(=O)c1ccc(C)c([N+](=O)[O-])c1 — lower, -12.8%
- COCCNCCOc1c(C)cc(Cl)cc1Cl — lower, -9.3%
- Cn1c(=O)c2c(ncn2CC(=O)N2CCN(Cc3ccccc3)CC2)n(C)c1=O — higher, -3.8%
- C=CCN1C(=O)/C(=C/c2ccc(Cl)cc2)C(=O)NC1=S — higher, -0.7%
- CCOC(=O)c1c(N)sc(C(=O)Nc2cc(C)cc(C)c2)c1C — higher, 4.1%
- O=C1/C(=C/c2ccccc2)SC(=S)N1c1ccccc1Cl — lower, -7.4%
- Cc1ccc2oc(-c3cc(NC(=O)c4ccc(C(C)(C)C)cc4)ccc3O)nc2c1 — higher, 45.9%
- Cn1c(CN2CCCC2)c(-c2ccccc2)c2cc([N+](=O)[O-])ccc21 — higher, -0.8%
- CC(C)CN1C(=O)/C(=C/c2ccco2)SC1=S — higher, 18.1%
- Clc1ccc(Nc2nc(-c3ccncc3)nc3ccccc23)cc1 — higher, 109%
- Cc1ccc(C2CC(C(F)(F)F)n3nc(C(=O)Nc4cc(C(F)(F)F)ccc4Cl)cc3N2)cc1 (stereo not drawn) — higher, 15.3%
- O=S(=O)(c1ccc(Cl)cc1)N1CCN(Cc2cccc(F)c2)CC1 — lower, -16.5%
- CC1Oc2ccccc2C=C1/C=C1\SC(=S)N(CCc2ccccc2)C1=O (stereo not drawn) — higher, 11.2%
- NC(=O)C1=CC2([N+](=O)[O-])CN(Cc3ccccc3)CC([N+](=O)[O-])(C1)C2 (stereo not drawn) — higher, 36%
- COc1cc(/C=N/N2C(=O)C3C4C=CC(C4)C3C2=O)cc(I)c1O (stereo not drawn) — higher, 3.3%
- COc1ccc(-c2cc(-c3ccccc3O)[nH]n2)cc1 — higher, 2.8%
- Cn1ccnc1C(O)c1cc(C(C)(C)C)c(O)c(C(C)(C)C)c1 (stereo not drawn) — higher, 8.7%
- COc1ccc(N(CC(=O)Nc2ccccc2Br)S(C)(=O)=O)cc1 — higher, -1.5%
- Cc1ccc(SCC(=O)Nc2cccc([N+](=O)[O-])c2)cc1 — higher, 7.9%
- CCOC(=O)C1=C(O)/C(=C/c2ccccc2)SC1=Nc1ccc(OC)cc1 — higher, -1.3%
- O=C(COc1ccc(Br)cc1)Nc1ccc2nn(-c3ccc(F)cc3)nc2c1 — higher, 50.3%
- CC(=O)N1CCN(c2ccc(NC(=O)COc3ccccc3C)cc2)CC1 — higher, 15.4%
- COCCNC(=O)c1cc2nc(-c3ccc(Cl)c(Cl)c3)cc(C(F)(F)F)n2n1 — lower, -13%
- Clc1ccc(N2CCN(N=Cc3ccc(Cl)c(Cl)c3)CC2)cc1 — higher, -2.6%
- CC1=C(C(=O)Nc2ccccc2Cl)C(c2ccccc2F)NC(=S)N1 (stereo not drawn) — lower, -14.8%
- CCC(=O)N1c2ccccc2NC2=C(C(=O)CC(c3ccccc3)C2)C1c1cccc([N+](=O)[O-])c1 (stereo not drawn) — lower, -7.8%
- CCSC1=C(C#N)C(c2ccc(O)cc2)C(C(=O)Nc2ccccc2)=C(C)N1 (stereo not drawn) — higher, 2.3%
- CCC1(C)CC(CCNCc2ccc(F)cc2)(c2ccccc2OC)CCO1 (stereo not drawn) — higher, 2.7%
- O=C(O)COc1ccccc1/C=N/NC(=O)Cc1ccc(Br)c2ccccc12 — higher, 10.1%
- Cc1n[nH]c(C)c1CCCCCCOc1ccc(F)cc1 — higher, 6.9%
- Cc1c(C(=O)N2CCCCC2)sc(NC(=O)Cc2ccccc2)c1C#N — lower, -4.5%
- O=C1N=c2ccc([N+](=O)[O-])cc2=C1c1sc(=S)n(Cc2ccccc2)c1O — higher, 1.1%
- Cc1ccc(S(=O)(=O)N2CCN(Cc3ccccc3[N+](=O)[O-])CC2)cc1 — higher, 7.8%
- O=C(C1CCCCC1)N(Cc1ccccc1)Cc1ccccc1 — lower, -9.6%
- Cc1cccc(NC(=O)C2C(c3ccccc3)=C2c2ccccc2)c1C — higher, 5.5%
- CCC(=O)Nc1nc(C)c(-c2csc(Nc3cc(C)ccn3)n2)s1 — higher, 11.9%
- COC(=O)c1ccc(/C=N/NC(=O)CC2C(=O)NN=C2C)cc1 (stereo not drawn) — higher, -0.1%
- CCOC(=O)c1ccc(N2C(=O)c3ccc(C(=O)Nc4ccc(O)cc4C(=O)O)cc3C2=O)cc1 — higher, -1.6%
- Cc1cc(NC(=O)c2cccc3ccccc23)ccc1NC(=O)c1ccccc1 — higher, -3.8%
- c1ccc(CNc2nc(-c3ccccc3)cc(-c3ccccc3)n2)cc1 — higher, -0.9%
- COc1cc(C(c2ccc(C)o2)c2ccc(C)o2)c(O)c([N+](=O)[O-])c1 — higher, 11.9%
- COc1cccc(C2C(C(=O)OCCc3ccccc3)=C(C)NC3=C2C(=O)CCC3)c1OC (stereo not drawn) — higher, -0.3%
- CCCc1c(C)nc2ccc(OC)cc2c1Cl — higher, 2.9%
- O=C(Cc1ccc(Cl)cc1)NCc1ccncc1 — lower, -6%
- O=P(O)(OC(c1ccccc1)C(F)(F)F)c1ccccc1 (stereo not drawn) — higher, 13.1%
- O=C1NC(=S)S/C1=C\c1ccc(Oc2ccc([N+](=O)[O-])cn2)cc1 — higher, 61.8%
- Cc1ccoc1C(=O)Nc1cccc2ccccc12 — lower, -7%
- CCC(CC)N=C1NS(=O)(=O)c2cc([N+](=O)[O-])ccc21 — higher, -3%
- O=C(COc1ccc(Br)cc1)Nc1ccncc1 — lower, -10.1%
- CCC(C)NC(=O)c1ccc(CN2CCN(c3ccccc3)CC2)cc1 (stereo not drawn) — higher, -1.9%
- Cc1cc(NC(=O)c2cc(Cl)ccc2Cl)ccc1NC(=O)c1ccco1 — higher, 8.8%
- O=C(/C=C\Nc1ccccc1O)c1ccc2c(c1)OCO2 — higher, 8.3%
- O=C(N/N=C/c1cc([N+](=O)[O-])c(N2CCOCC2)cc1N1CCOCC1)c1cccnc1 — higher, 8.4%
- Cc1nc(SCc2ccccc2)nc2ccccc12 — higher, 13.5%
- COc1cccc(N2C(=O)C3C4C=CC(C4=C4CCCCC4)C3C2=O)c1 (stereo not drawn) — lower, -4.9%
- COc1ccc(N(CC(=O)Nc2c(C)n(C)n(-c3ccccc3)c2=O)S(=O)(=O)c2ccc(C)cc2)cc1 — higher, 7.2%
- O=C(NCCCN1CCOCC1)c1cnn2c(C(F)(F)F)cc(-c3cccs3)nc12 — higher, 14.4%
- O=C(Cc1ccccc1)Nc1ccc(Cl)cc1C(=O)O — higher, 9.8%
- C/C(=N\N=C1\NC(=O)C(CC(=O)Nc2ccc(C)c(Cl)c2)S1)c1ccc(F)cc1 (stereo not drawn) — higher, 9.4%
- COc1cccc(NC(=O)c2sc(-c3ccccc3)nc2C)c1 — higher, 14.2%
- CCOc1cc(OCC)cc(C(=O)Nc2ccc(C(=O)OC)cc2)c1 — higher, -1%
- CCOC(=O)c1c(NC(=O)/C=C/c2cccc([N+](=O)[O-])c2)sc2c1CCC2 — higher, 24%
- COc1ccc(Cl)cc1NC(=O)COc1c(C)cc(C)cc1C — higher, 7.8%
- O=C(CCCC(=O)OCC(F)(F)C(F)F)Nc1nccs1 — higher, 9.8%
- CCc1cc2c(N3CCN(Cc4ccccc4)CC3)ncnc2s1 — lower, -6.3%
- COc1ccc(C(NC=O)c2ccc(OC)c(OC)c2)cc1 (stereo not drawn) — higher, -3%
- COc1cc(/C=N/NC(=O)COc2ccccc2C)c(Br)c(Br)c1O — higher, 3.8%
- O=C1CCC(C(=O)Nc2ccc(Cl)cc2)N1 (stereo not drawn) — higher, 11%
- COC(=O)c1c(NC(=O)COc2ccccc2)sc2c1C(C(=O)OC)CC2 (stereo not drawn) — lower, -12.5%
- NC(=O)N/N=C1\NC(=O)/C(=C\c2ccccc2)S1 — higher, 25.7%
- COCCN1C(=O)C(=O)/C(=C(/O)c2ccccc2)C1c1cccc(F)c1 (stereo not drawn) — lower, -12.7%
- CN1C(=O)C(=Cc2ccc(OCc3cccc(C(=O)O)c3)cc2)C(=O)N(C)C1=O — higher, 13.1%
- Cc1cc(OCCCCN2CCC(C)CC2)ccc1Cl — higher, -3.2%
- CCOc1ccc(/C=C2\C(=O)C(C(=O)OC)=C(C)N2c2ccc(F)cc2)cc1 — lower, -6.6%
- COc1ccc(CNS(=O)(=O)Cc2ccccc2)cc1 — lower, -4.6%
- O=C(NCC1CCCO1)c1cc(-c2ccccc2)nc2ccccc12 (stereo not drawn) — lower, -7.9%
- Cc1cc(NC(=O)CCc2ccccc2)no1 — higher, 5.7%
- COc1ccc(CNC(=O)C(=O)Nc2ccc(Cl)c(C(F)(F)F)c2)cc1 — lower, -7.4%
- O=C(/C=C/c1ccco1)Nc1scc(-c2cccs2)c1C(=O)O — higher, 39.5%
- COc1ccc(/C=N/NC(=O)CSc2n[nH]c(=O)[nH]c2=O)cc1 — lower, -12.9%
- NC(=O)c1c(NC(=O)c2ccc(-c3ccccc3)cc2)sc2c1CCCC2 — higher, 6.1%
- Nc1nc(SCc2ccc(Cl)cc2)nc2sc3c(c12)CCN(Cc1ccccc1)C3 — higher, 16.8%
- CN(C)/C=N/n1cnc2scc(-c3ccc(Cl)cc3)c2c1=O — higher, 10.9%
- COC(=O)c1cc(NC(=O)c2cccc(N(C)C)c2)cc(C(=O)OC)c1 — lower, -12.3%
- O=C(COc1ccc2c3c(c(=O)oc2c1)CCC3)c1ccc(-c2ccccc2)cc1 — higher, 13.4%
- CN1CCN(CC(=O)N2c3ccccc3Sc3ccccc32)CC1 — higher, -3.8%
- CCN(CC)c1ccc(N2C(=O)/C(=C/c3ccc(C(=O)O)cc3)SC2=S)cc1 — higher, -0.4%
- CCCCCCOc1ccc(N2C(=O)CC(N3CCC(C(N)=O)CC3)C2=O)cc1 (stereo not drawn) — higher, 4.6%
- COc1ccc(C(=O)Cn2cnc3c(C#N)c4n(c3c2=O)CCCCC4)cc1 — higher, -1.9%
- COc1ccc(C)cc1NC(=O)C(=O)NCCc1ccccc1 — lower, -4.4%
- CSc1ccc(S(=O)(=O)NCCSc2nc3ccccc3s2)cc1 — higher, 1.6%
- COC(=O)C1=C(C)N(C)C(C)=C(C(=O)OC)C1c1cccc(Cl)c1Cl — lower, -7.4%
- CCOC(=O)c1c(NC(=O)c2ccc(S(=O)(=O)N3CCOCC3)cc2)sc2c1CCC2 — higher, 2.2%
- CCOC(=O)c1ccc(NC2=C(C(=O)C(F)(F)F)CCCC2)cc1 — higher, 1.2%
- C=CCNC(=O)c1ccc(C(=O)c2cc(OC)ccc2OC)cc1 — lower, -6.5%
- O=C(/C=C/c1ccc(Cl)cc1)NCCc1nc2ccccc2[nH]1 — lower, -8.7%
